# Reference: a collection of fitness landscapes (doi:10.1016/j.celrep.2020.107928)
# The full ranking holds about 81,000 sequences; the median of “one-hybrid fitness for binding NBS DNA” is about -0.1, and the highest 2% start at about 0.36. The list shows a part of the results.
# B1: Caulobacter ParB omega fusion; a variant is named by its letters at X, in order, B8GW30 (parent)
# chain: MESVVVGEPGMSEGRRGLGRGLSALLGEVDAAPAQAPGEQLGGSREAPIEILQRNPDQPRRTFREEDLEDLSNSIREKGVLQPILVRPSPDTAGEYQIVAGERAWRAAQRAGLKTVPIMVRELDDLAVLEIGIIENVQRADLNVLEEALSYKVLMEKFERTQENIAQTIGKSXSHVANXMRLLXLPDEVQSYLVSGELTAXHARAIAAAADPVALAKQIIEGGLSVRETEALARKAPNLSAGKSKGGRPPRVKDTDTQALESDLSSVLGLDVSIDHRGSTGTLTITYATLEQLDDLCNRLTRGI
# Variants of: B1
# Test: one-hybrid fitness for binding NBS DNA (the Noc-binding site; scaled: cognate 1, non-cognate 0); higher = stronger binding
# Conditions: with NBS DNA site
# In short: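 Fitness is the rescaled log change in variant-to-wild-type read ratio, measured by Illumina sequencing of plasmids before and after bacterial one-hybrid selection. The scale puts cognate at 1 and non-cognate at 0. Selection of Caulobacter ParB libraries, four specificity codons randomised, took place in E. coli USO with a HIS3 reporter, site 19 bp from the promoter, over 48 hours at 37°C on M9-minus-histidine with 0.1 mM IPTG and 5 mM 3-AT.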
row,Variant,one-hybrid fitness for binding NBS DNA
1,EAWY,≤ 0.2
2,RMWW,≤ 0.2
3,DSNT,≤ 0.2
4,LQLL,≤ 0.2
5,TKAR,≤ 0.2
6,VLDR,≤ 0.2
7,TVGL,≤ 0.2
8,ASIH,≤ 0.2
9,CHRC,≤ 0.2
10,TLNF,≤ 0.2
11,VYTI,≤ 0.2
12,QPWI,≤ 0.2
13,DSHR,≤ 0.2
14,NVQT,≤ 0.2
15,MRHE,≤ 0.2
16,CVIC,≤ 0.2
17,QEKG,≤ 0.2
18,VWSI,≤ 0.2
19,ILYS,≤ 0.2
20,LVVC,≤ 0.2
21,GHLR,≤ 0.2
22,RCMA,≤ 0.2
23,HAPQ,≤ 0.2
24,NKTK,≤ 0.2
25,KARL,≤ 0.2

row,Variant,one-hybrid fitness for binding NBS DNA
1,EMRC,≤ 0.2
2,LNKT,≤ 0.2
3,AMPC,≤ 0.2
4,QQQR,0.586
5,NALS,≤ 0.2
6,FHNS,≤ 0.2
7,MVHL,≤ 0.2
8,TLAY,≤ 0.2
9,DACN,≤ 0.2
10,RIAL,≤ 0.2
11,NVSL,≤ 0.2
12,VWRC,≤ 0.2
13,TWHV,≤ 0.2
14,KTTV,≤ 0.2
15,VPQD,≤ 0.2
16,HSPA,≤ 0.2
17,CRES,≤ 0.2
18,CMAE,≤ 0.2
19,MVER,0.34
20,LLSL,≤ 0.2
21,FWLR,≤ 0.2
22,NVKV,≤ 0.2
23,TDMS,≤ 0.2
24,NVMR,≤ 0.2
25,ASYC,≤ 0.2

row,Variant,one-hybrid fitness for binding NBS DNA
1,STEL,≤ 0.2
2,RCVK,≤ 0.2
3,QDTA,≤ 0.2
4,QLPN,≤ 0.2
5,WKSA,≤ 0.2
6,LKTW,≤ 0.2
7,EDSM,≤ 0.2
8,WVEF,≤ 0.2
9,KVKT,≤ 0.2
10,VMHS,≤ 0.2
11,PTYL,≤ 0.2
12,TLGG,≤ 0.2
13,GNKK,≤ 0.2
14,LDTL,≤ 0.2
15,VATR,≤ 0.2
16,PMNS,≤ 0.2
17,KNIE,≤ 0.2
18,FGTT,≤ 0.2
19,PCFY,≤ 0.2
20,GHQP,≤ 0.2
21,RPVW,≤ 0.2
22,CFAC,≤ 0.2
23,TQTW,≤ 0.2
24,HKEP,≤ 0.2
25,HAHA,≤ 0.2

row,Variant,one-hybrid fitness for binding NBS DNA
1,PENA,≤ 0.2
2,GLKF,≤ 0.2
3,TAMV,≤ 0.2
4,RRES,0.578
5,APHM,≤ 0.2
6,VLTW,≤ 0.2
7,HTHI,≤ 0.2
8,QMDN,≤ 0.2
9,RWLR,≤ 0.2
10,CKCC,≤ 0.2
11,DRSM,≤ 0.2
12,PYTL,≤ 0.2
13,TNSI,≤ 0.2
14,CAKA,≤ 0.2
15,YRND,≤ 0.2
16,CSEG,≤ 0.2
17,EWDS,≤ 0.2
18,IWLF,≤ 0.2
19,RNKA,≤ 0.2
20,SDNH,≤ 0.2
21,CDGK,≤ 0.2
22,TGPI,≤ 0.2
